Test results taken from patent publication US20240091321A1 (AMICUS THERAPEUTICS, published 2024).

Molecular target: T1, CI-MPR receptor
T1 construct: also called IGF2/CI-MPR; IGF2/Mannose-6-phosphate receptor
Experiment: CIMPR plate binding assay, bound NAGLU activity (4MU released)

Kd: 38.2 nM
B1: vIGF2-NAGLU-HPC4 (enzyme)
chain: [about 60 residues cut from this listing]GGGGSGGGGSRPRAVPTQAEAREAAAVRALVARLLGPGPAADFSVSVERALAAKPGLDTYSLGGGGAARVRVRGSTGVAAAAGLHRYLRDFCGCHVAWSGSQLRLPRPLPAVPGELTEATPNRYRYYQNVCTQSYSFVWWDWARWEREIDWMALNGINLALAWSGQEAIWQRVYLALGLTQAEINEFFTGPAFLAWGRMGNLHTWDGPLPPSWHIKQLYLQHRVLDQMRSFGMTPVLPAFAGHVPEAVTRVFPQVNVTKMGSWGHFNCSYSCSFLLAPEDPIFPIIGSLFLRELIKEFGTDHIYGADTFNEMQPPSSEPSYLAAATTAVYEAMTAVDTEAVWLLQGWLFQHQPQFWGPAQIRAVLGAVPRGRLLVLDLFAESQPVYTRTASFQGQPFIWCMLHNFGGNHGLFGALEAVNGGPEAARLFPNSTMVGTGMAPEGISQNEVVYSLMAELGWRKDPVPDLAAWVTSFAARRYGVSHPDAGAAWRLLLRSVYNCSGEACRGHNRSPLVRRPSLQMNTSIWYNRSDVFEAWRLLLTSAPSLATSPAFRYDLLDLTRQAVQELVSLYYEEARSAYLSKELASLLRAGGVLAYELLPALDEVLASDSRFLLGSWLEQARAAAVSEAEADFYEQNSRYQLTLWGPEGNILDYANKQLAGLVANYYTPRWRLFLEALVDSVAQGIPFQQHQFDKNVFQLEQAFVLSKQRYPSQPRGDTVDLAKKIFLKYYPRWVAGSWGLEVLFQGPEDQVDPRLIDGK
notes: Whole entry; it includes the native NAGLU signal peptide; also called IGF2-tagged NAGLU (vIGF2)
